Experimental data published in the supplement of paper PMC3334620.
The full ranking holds about 33,000 sequences; the median of “E-score (-0.5 to 0.5)” is about -0.016, and the highest 2% start at about 0.32. The list shows a part of the results.

Molecular target: T1, Stp1 (UniProt B3LFK1)
T1 sequence: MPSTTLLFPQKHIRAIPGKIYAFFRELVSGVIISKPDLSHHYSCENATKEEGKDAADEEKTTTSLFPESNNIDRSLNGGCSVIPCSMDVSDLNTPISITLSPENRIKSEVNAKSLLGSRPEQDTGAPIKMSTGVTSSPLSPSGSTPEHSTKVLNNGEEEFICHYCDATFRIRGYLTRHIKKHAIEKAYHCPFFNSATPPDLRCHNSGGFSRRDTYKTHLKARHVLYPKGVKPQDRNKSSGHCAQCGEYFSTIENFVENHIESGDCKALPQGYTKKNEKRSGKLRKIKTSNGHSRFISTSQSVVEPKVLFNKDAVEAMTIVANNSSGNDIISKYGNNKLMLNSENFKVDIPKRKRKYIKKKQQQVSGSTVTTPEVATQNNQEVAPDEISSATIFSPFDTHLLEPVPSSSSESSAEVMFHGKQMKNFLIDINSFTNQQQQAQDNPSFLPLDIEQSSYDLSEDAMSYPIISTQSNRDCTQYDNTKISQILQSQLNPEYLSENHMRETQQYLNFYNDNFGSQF
Experiment: PBM E-score (8-mer binding enrichment) (E-score (-0.5 to 0.5)); higher = stronger / more preferred TF binding; most listed sequences are background and not binding sites
Settings: protein concentration: 200 nM; construct: GST-full length
In short: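 For each ungapped eight-base word taken together with its reverse complement, the Universal PBM Analysis Suite assigned an E-score. Binding data came from GST-tagged yeast transcription factors, applied at about 100-200 nM, on universal all-10-mer Agilent arrays made double-stranded by primer extension. Fluorescent anti-GST marked bound protein, and scans were normalised with masliner.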

Sequence	PBM E-score
GGCTCACA	0.00723
GACACGTA	-0.0652
GAGTATGC	-0.049
CCTCCGTA	-0.0433
AGTCCTAG	-0.221
CATTCAAG	-0.0179
CTACTTAA	-0.106
CGGAGCCC	-0.125
AGAAGACA	-0.0204
AGGAGAGC	-0.218
CTATAGCA	0.0532
AAGCGTTG	-0.0552
TATTTCCA	0.0062
AAAAATGG	0.139
TCCATACA	0.129
CGTGGTAC	-0.128
ACCGTGAC	-0.171
ACTTGACC	-0.228
CAGCCGCG	0.259
CCGGGCAG	-0.144
ATACAGTA	0.126
CATCTAGC	0.0607
ACCGGTTC	-0.292
ATGAAGCG	0.0289
CACGTTCC	-0.0314

Sequence	PBM E-score
CAAACACA	0.114
AGAGTAGA	0.11
AGGTCGCC	-0.00093
CGCGACGA	0.108
CAAGCTAG	-0.189
AGATCAGC	-0.04
CCATTACC	-0.00731
GAGAGTTA	-0.146
CGAAAATA	0.25
ACTCGCGC	0.224
ATCTCTTC	0.0306
AGGCAAGA	0.107
AAACTTAT	0.0945
CTTTATTA	0.00896
CGACGACG	0.0471
CATCCGCA	0.25
TGGGTCAA	-0.153
CATTCTCA	0.187
TATATAAA	0.213
ACCTCACC	-0.128
ACTCATGA	0.12
GTTGATGA	-0.0685
AGGACGAC	-0.137
CATACGCA	0.138
GATTTTGA	0.216

Sequence	PBM E-score
CACGGCCG	0.338
AATTTATG	0.248
AGATTACG	0.0365
TTTCCAAA	0.052
TATAATAA	0.288
AGACCTTA	-0.15
CCAATGGG	-0.36
AAAATACT	0.14
CAAGTCCG	-0.0822
AAATATGT	0.165
CCCGTAGA	-0.254
ACCACGGT	-0.259
ACAATCGC	0.142
AGGTCTAA	-0.0298
ACATGCCC	-0.168
ATGAATTG	0.0321
GCACCCCA	-0.114
GTCAGCGA	-0.158
ACGGGACG	0.0549
AATCAGGG	-0.289
ATGAGTCA	-0.227
CCCACCAG	-0.209
ATATTCAG	0.072
AATTATGG	0.0682
CCAGCCCC	-0.256

Sequence	PBM E-score
TGGTCAAA	0.124
CGGGTCAA	-0.162
GTGTTGGA	-0.136
CACCTTAA	-0.0294
TACGTAAA	0.189
CATCGTAC	0.0709
GTCGACAC	0.0998
TGTGAACA	0.0116
AGGCGAAC	0.145
CTAATAAA	0.0356
GAGAAGCA	-0.066
GGCTTTGA	0.167
CGACCCTC	-0.302
AAGGCGTG	0.179
AACTAAGG	0.194
GACGCCCA	0.0231
ACATCCCA	-0.193
AGGCCAAT	-0.152
CCGTTAGG	0.0376
AGCTAACA	-0.034
ATCCCTAC	0.132
GAGAGGGA	-0.297
CAATAGAC	0.0676
CCGTATTC	0.246
AGCTGACA	-0.0424

Sequence	PBM E-score
AGCGGCCT	0.0372
CCTTTGCA	0.0304
GCTAAGTA	0.0343
ACAAGGGA	-0.144
AGTTGTAG	0.0593
GCTGCGCA	-0.185
ACGCTCGA	-0.0886
CCTCCAAA	-0.0913
ACGTCGGC	-0.153
GCGTCACA	0.0674
AACATAGG	0.0786
CACACCGC	0.00411
TAAACTGA	0.114
AGTAAGAG	-0.166
AAGTCCGG	-0.205
GATTCTAA	0.00656
GTCATTGA	-0.122
AAATCGGA	-0.102
ACCTATTC	-0.0399
AAAGGCTA	0.00059
ACCGCACA	-0.0115
ATAACTGC	0.0227
AGCAAGTC	-0.0501
ACGGAGCT	0.087
AAGCCCCA	-0.307

Sequence	PBM E-score
ATTTTCTG	-0.0455
ATCTATCG	-0.0279
AATCAGAG	0.147
AAAGTCGC	0.202
GGACTAAA	-0.0733
CGATCGGC	0.178
CAAGAGAA	-0.0554
ACGACGTC	-0.0957
CGTACTGA	0.131
GTAACACA	-5e-05
CGGACTGA	-0.0177
AACAGTAG	-0.0144
CGCCCCTA	0.0337
GCATCCGA	0.00637
AGTCGACC	-0.214
GCGAGAAC	-0.0327
TACGGCCA	0.214
CCAAACGA	-0.00343
CCCGAAGA	-0.219
ATGGGCAG	0.0407
ACACCCCG	-0.157
GCCTAGGA	-0.0911
CAATTGAG	0.164
CTGCTTGC	-0.0347
ATCTGTAA	-0.0573

Sequence	PBM E-score
ACTTAGCT	-0.134
ACCTGTCT	-0.147
AACTAACG	0.0939
ACAGCACA	0.121
GCCCCGCA	0.0316
CGGCTTTA	0.225
CCAGAACC	-0.154
AATTACCC	-0.19
CCAAAGCA	-0.132
ATCCTTGC	-0.0193
AACCATTG	-0.0202
CAGAATGA	0.0394
GAAATGAA	0.112
ACTACCTA	0.0508
GTGTAGAA	0.0309
CTATAGAC	-0.0316
CGACGAAG	0.11
AGCTTGGG	-0.175
GGTTTGCA	-0.0784
CCCTAGCA	-0.19
GCTCTGCC	-0.205
AGCAAACA	-0.00238
